In all, about 33,000 sequences were measured (“E-score (-0.5 to 0.5)”: median about -0.016, highest 2% from about 0.32 on). The list shows a part of the results.
Target: T1, Stp1 (UniProt B3LFK1)
T1 sequence: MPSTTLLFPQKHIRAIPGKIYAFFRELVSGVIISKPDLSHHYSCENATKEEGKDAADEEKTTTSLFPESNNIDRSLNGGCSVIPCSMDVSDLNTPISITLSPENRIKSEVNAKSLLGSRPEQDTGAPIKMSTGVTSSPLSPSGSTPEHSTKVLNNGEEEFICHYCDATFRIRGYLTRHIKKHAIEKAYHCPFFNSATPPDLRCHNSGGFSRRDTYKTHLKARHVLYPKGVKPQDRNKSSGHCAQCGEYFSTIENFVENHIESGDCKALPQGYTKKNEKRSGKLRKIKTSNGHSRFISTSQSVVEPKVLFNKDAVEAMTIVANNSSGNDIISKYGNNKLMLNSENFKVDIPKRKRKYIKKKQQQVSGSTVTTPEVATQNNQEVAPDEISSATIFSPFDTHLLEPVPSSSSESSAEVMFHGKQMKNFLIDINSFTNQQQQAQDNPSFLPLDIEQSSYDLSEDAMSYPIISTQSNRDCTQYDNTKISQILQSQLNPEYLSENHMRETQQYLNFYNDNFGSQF
Assay: PBM E-score (8-mer binding enrichment) (E-score (-0.5 to 0.5)); higher = stronger / more preferred TF binding; most listed sequences are background and not binding sites
Conditions: protein concentration: 200 nM; construct: GST-full length
Experimental: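 Universal 'all 10-mer' protein binding microarrays (Agilent AMADID 015681) probed with GST-tagged S. cerevisiae TFs (full-length or DBD) made by in vitro transcription/translation (PURExpress), about 100-200 nM. Bound TF was detected with fluorescent anti-GST. Each ungapped 8-mer (which stands for itself and its reverse complement) is scored by the PBM enrichment score (E-score), a modified Wilcoxon-Mann-Whitney statistic from -0.5 to +0.5, computed with the Universal PBM Analysis Suite. Scale: above 0.35 generally sequence-specific binding.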

| Sequence | PBM E-score |
| --- | --- |
| AGACCGCT | -0.168 |
| ATGCTAAC | 0.0588 |
| ACTCCGAC | -0.111 |
| GCGCTAAC | 0.173 |
| ATCGGAAC | -0.0593 |
| ACCCCACG | -0.185 |
| CCTGGACC | -0.218 |
| CAGGCAAA | 0.0968 |
| AAGTCGCC | 0.0565 |
| GTGGGCAA | -0.0572 |
| AACTTGGC | -0.0907 |
| CTAACTAA | 0.00236 |
| ATGCTCGC | 0.0666 |
| AGCCTGAA | -0.00656 |
| AAATCCCC | -0.262 |
| ACGTCTAC | -0.193 |
| CCAGAGCG | -0.216 |
| GACGCATA | 0.185 |
| ACTGACGG | -0.112 |
| ACTCCCTC | -0.338 |
| ACCATTGG | -0.112 |
| GGAGCGGA | -0.124 |
| AGGCCTGC | -0.11 |
| AGTCCTCG | -0.259 |

| Sequence | PBM E-score |
| --- | --- |
| CGGGAACG | -0.0785 |
| ACCCCGAG | -0.0993 |
| CATCGACA | -0.237 |
| ATCACACA | 0.131 |
| AAGTGTGG | -0.043 |
| CATGAATA | 0.0264 |
| AACGCCTA | 0.0856 |
| ACACACTC | 0.00411 |
| AGACCCAA | -0.151 |
| CGCGCCAC | 0.286 |
| CACTCATC | 0.0126 |
| CCAGCGTC | -0.273 |
| AGTAGCAA | 0.0932 |
| CAAAACCC | -0.0331 |
| AGCAGCGC | 0.0916 |
| GGTGAGTA | 0.00682 |
| AGGACTTC | -0.187 |
| AAACAAGA | 0.043 |
| AGACCACG | -0.3 |
| GTGCGAAA | -0.00623 |
| GTGGAAAA | 0.0321 |
| CTTACAAA | 0.0851 |
| ACCGCCGA | 0.0744 |
| ATTTCACA | 0.109 |

| Sequence | PBM E-score |
| --- | --- |
| ATTCTGAG | -0.0737 |
| TATTGTCA | 0.127 |
| ACATGCCT | 0.066 |
| CATCTTCG | -0.0797 |
| GTCACTGA | -0.0907 |
| AATTCCGA | -0.0617 |
| AGATCTGG | -0.104 |
| GGCAACAA | 0.309 |
| AGAGATTC | -0.0324 |
| ACACGAAA | 0.0839 |
| ACGGTGCG | 0.173 |
| GTCAATTA | 0.106 |
| TAGTTATA | 0.0803 |
| GAGATCCA | -0.0824 |
| GACAATGC | 0.126 |
| CGCGATCC | -0.0162 |
| GGCTGCCA | 0.0727 |
| CCCCGTAC | 0.0216 |
| AACGGAGC | 0.0361 |
| ACTCCCGG | -0.187 |
| CAGATGTC | -0.15 |
| AAGTCACT | 0.0121 |
| CACACGTC | -0.0138 |
| AATACTAG | 0.0884 |

| Sequence | PBM E-score |
| --- | --- |
| CGACCAAC | -0.0193 |
| GGGAACAC | -0.0624 |
| AAGATCTC | -0.23 |
| CTCTACCC | -0.236 |
| CTTTAAGC | 0.0759 |
| CTCGATCC | -0.0198 |
| ACGGGGCC | -0.0286 |
| ATGACAGC | 0.0104 |
| GAGGAAGC | -0.226 |
| GATGGAGA | -0.00272 |
| CCTCCCTA | -0.28 |
| CTCAGCTC | -0.0878 |
| TATTTCGA | 0.241 |
| AACCAACG | -0.0438 |
| GGTGGTAC | -0.289 |
| TCATCAGA | -0.0331 |
| ACCCATGC | -0.167 |
| AGACACCG | -0.131 |
| CACTTCAC | -0.0796 |
| AGCGCAAC | -0.0708 |
| CGGATTGC | 3e-05 |
| AAGTCAAG | -0.236 |

From the supplement of paper PMC3334620
